# Assay results from paper PMC5836133.
# This is one part of the list. At the low end of the ranking the order means little.
# System: T1, GST-NbGlk1(82-244)
# T1 sequence: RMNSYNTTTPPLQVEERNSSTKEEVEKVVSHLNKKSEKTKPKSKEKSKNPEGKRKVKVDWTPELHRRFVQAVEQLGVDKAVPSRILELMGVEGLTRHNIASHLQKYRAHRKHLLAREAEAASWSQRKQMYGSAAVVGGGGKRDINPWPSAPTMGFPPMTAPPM
# Test: protein-binding microarray;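 further: rank-based score ranging −0.5 to +0.5 with E above 0.45 taken as significant binding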
# Settings: NbGlk1 is a Golden2-like transcription factor of Nicotiana benthamiana; high values mean tight binding; most listed sequences are background and not binding sites; double strand, one strand shown
row,Sequence,binding signal [E-score]
1,ACGGCCAG,-0.194
2,ACGATTGC,0.345
3,CAGATCCG,0.266
4,AAAGATCC,0.292
5,ACAACGAA,0.0437
6,AAGTCACG,-0.0811
7,AGACTGTA,-0.127
8,ATGCCCCA,-0.139
9,ATGGGAGA,-0.0374
10,AGTCGAAC,-0.152
11,ACAAAAGA,0.0752
12,AGTTTTAT,0.0696
13,AATTGGGA,0.0189
14,ATCGGCCG,0.0725
15,AGCGTCTG,-0.0542
16,ATGGCCCG,-0.353
17,AAGAACTT,-0.0502
18,ATTGATGA,-0.0144
19,ATTCCCGA,0.333
20,ATAAATTA,0.187
21,AGCCATGC,-0.272
22,AGCAGAAG,-0.295
23,ACAGAGTG,-0.154
24,AAACACGA,0.14
25,AGCTTAGC,-0.117

row,Sequence,binding signal [E-score]
1,AGCATCAA,0.0211
2,ACTATCAT,0.153
3,AGCATCAG,-0.0305
4,AGTGTTCC,-0.158
5,AAAGAGCG,-0.0069
6,ACAACCTG,-0.172
7,ACTTCGTG,-0.0465
8,CAGATTTA,0.276
9,CAACGTCG,-0.115
10,AGTTGTCG,-0.102
11,ATAAGACG,-0.0889
12,ACACTCGG,-0.108
13,AAGCACCG,-0.115
14,ACCACGTA,-0.0477
15,ACACTCGA,-0.124
16,ACGGCCAC,-0.299
17,CAACAGCG,-0.0646
18,AAAATCGT,0.39
19,ATTCAACA,0.0683
20,AATGCACG,-0.169
21,ACCTGATG,0.0193
22,ACGCCCGG,-0.313
23,CAAGCCGG,-0.216
24,ACCGACGT,-0.0258
25,AAAACGTA,0.165

row,Sequence,binding signal [E-score]
1,AGTAACAG,-0.0794
2,AGTTCGCC,-0.138
3,AGACTTGA,-0.108
4,ATCACAAA,0.225
5,AACAATGA,-0.00435
6,AGGTTATA,-0.0423
7,ACGGACGT,-0.0226
8,ACTCCGGA,-0.0762
9,AGGTCGGC,-0.321
10,CAAAGACG,-0.0469
11,ATAGCCGC,-0.0878
12,ATCTTGAC,0.272
13,AACCCCCG,-0.235
14,AGAACGTA,-0.0132
15,ACCGAACC,-0.0587
16,AGTCCTCA,-0.14
17,ATAAAGAA,0.099
18,AACCTAGG,-0.0178
19,ACGGGAAC,-0.261
20,CAAGAGCG,-0.0565
21,AACTGTGA,0.0957
22,ACGCCAGT,-0.262
23,AGACTTGG,-0.209
24,AGCACGTA,0.0221
25,CACACGCC,-0.14

row,Sequence,binding signal [E-score]
1,AGCTCTGA,-0.129
2,ATTATTAC,0.253
3,AGAAATTG,0.139
4,AGCCGACG,-0.167
5,AGGTCGAC,-0.194
6,ATCCGGGC,0.118
7,AACAGCTC,-0.0881
8,ACATTCGC,-0.0117
9,AATGACCA,-0.185
10,AATTTGAG,0.117
11,ACACCGCC,-0.0477
12,ACCCGATA,0.104
13,ACTCTAAA,0.129
14,ATTAGCCC,-0.185
15,CACCGGTG,-0.263
16,ATCCCAGG,-0.00596
17,ACCGGTTC,-0.187
18,AGGTGGTC,-0.27
19,AATTCGGG,0.154
20,ACAGCTTA,-0.131
21,ACGGACAG,-0.114
22,ATTAGCTC,0.0523
23,ACCGGTTG,-0.29
24,CAGATATG,0.393
25,AGCGAGCC,-0.309

row,Sequence,binding signal [E-score]
1,ATCTGGCG,0.306
2,ACTCTTAT,0.0778
3,ACTAAAGC,-0.247
4,CACCAGCG,-0.199
5,AAGCTAAA,0.0161
6,ACTATGAC,-0.082
7,AAGGAATA,0.168
8,ATATCAAT,0.281
9,ATGTCTTC,-0.102
10,ACAGTCGG,-0.0618
11,ATACCCTA,0.146
12,ATGGTGAG,-0.0314
13,AAAGCTGC,-0.14
14,CAACGGAG,-0.185
15,AGAGGCAA,-0.0585
16,AGAGAGCC,-0.313
17,ATGAATTG,0.162
18,ATTAGTTC,-0.0948
19,ACATATCG,0.226
20,ATCTTTGG,0.304
21,AATCGGCG,0.219
22,CACTGTGG,-0.0646
23,AGGGCTAG,-0.262
24,ACCGCGAT,0.295
25,ACGAGAGA,0.0637

row,Sequence,binding signal [E-score]
1,ATCTAGCA,0.322
2,AGGCGCAG,-0.128
3,AACGTCAG,-0.114
4,ATAGGTAC,-0.137
5,ACAGCGTC,-0.287
6,CACAAACG,-0.0826
7,ATCCCGCC,0.175
8,AAGTAATG,-0.0469
9,AACAGTGC,-0.0192
10,CAACCCCC,-0.319
11,AGGGGGGG,-0.353
12,AGTCCCAC,-0.236
13,ATATAACA,0.214
14,CAATACTG,0.0826
15,AGCCAAAC,-0.191
16,AGTGGACG,-0.137
17,ATTTGTCG,0.172
18,AAGGACGG,-0.173
19,ACCGCGGG,-0.0466
20,AAGTAGTA,0.0158
21,ATTGCGCA,0.301
22,ATAGGTAA,0.154
23,CACCGCCG,-0.114
24,AACGCGAG,-0.123
25,CAACAAGA,-0.0107

row,Sequence,binding signal [E-score]
1,AAGGAACT,-0.138
2,AATGCACC,-0.114
3,ATTTTCCC,0.304
4,AGATTCTG,0.469
5,ATCCATTG,0.253
6,AGTCAACG,-0.177
7,ACCTTTCT,-0.15
8,AGCGTGGG,-0.125
9,ACGCAGAA,0.0169
10,ATGACGGA,0.0937
11,ACGTGCCA,-0.0746
12,CAACTGCG,-0.0688
13,CACCTCGC,-0.238
14,ATCGGCAA,0.216
15,CACAGCGA,0.0147
16,CACGCATG,-0.216
17,AAAGAAAC,-0.0207
18,AGCCTCTA,-0.205
19,ACTGCCGA,-0.00102
20,AATATCAA,0.322
21,CAAAATGA,0.0909
22,AGCTGCTG,-0.126
